Some of the results follow. These are enrichments in a pooled selection; single values are uncertain.

Holding throughout (assay): mean normalised NGS count of phage-displayed peptide after selection on bait (% of reads); baits are purified protein domains named by gene / domain / UniProt id / residues; peptides come from disordered regions of human proteins; higher = stronger enrichment / binding
Assay [1] concerns the target Intersectin-1_SH3_3_Q15811_1002_1060.
Assay [2] deals with Intersectin-1_SH3_5_Q15811_1155_1214.
In the next assay the target is Src_SH3__P12931_87_144.
Assay [3] addresses T1, GRAP2_SH3_2_O75791_274_329.
T1 chain: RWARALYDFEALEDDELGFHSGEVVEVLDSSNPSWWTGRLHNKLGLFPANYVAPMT

The target of assay [4] is Intersectin-1_SH3_1_Q15811_740_806.
Another assay deals with T2, IRS2_PTB__Q9Y4H2_188_304.
T2 chain: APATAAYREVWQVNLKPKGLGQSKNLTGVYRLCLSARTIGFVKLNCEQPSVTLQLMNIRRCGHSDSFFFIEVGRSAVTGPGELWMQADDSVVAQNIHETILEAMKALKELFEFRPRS
As to conditions: replicate selections in which the peptide was seen: 5.

Assay [5] has as its target MK08_Pkinase__P45983_1_363. The note with it: replicate selections in which the peptide was seen: 2.
The next assay addresses T3, GGA3_VHS__Q9NZ52_1_166.
T3 chain: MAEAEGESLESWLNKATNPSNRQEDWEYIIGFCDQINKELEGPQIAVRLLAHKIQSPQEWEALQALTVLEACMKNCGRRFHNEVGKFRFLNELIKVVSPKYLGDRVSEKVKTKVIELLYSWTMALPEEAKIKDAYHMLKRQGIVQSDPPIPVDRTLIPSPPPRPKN
The note with it: replicate selections in which the peptide was seen: 5.

Assay [6] addresses T4, PDZK1_PDZ_2_Q5T2W1_132_224.
T4 chain: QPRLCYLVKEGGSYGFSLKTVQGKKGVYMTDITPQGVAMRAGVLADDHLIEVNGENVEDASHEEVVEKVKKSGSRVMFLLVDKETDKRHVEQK
The note with it: replicate selections in which the peptide was seen: 6.

Assay [7] addresses Intersectin-1_SH3_2_Q15811_913_971.
For a further assay, the target named is NCK1_SH3_1_P16333_5_60.
The target of a further assay is T5, PIK3R1_SH3_1_P27986_6_78.
T5 chain: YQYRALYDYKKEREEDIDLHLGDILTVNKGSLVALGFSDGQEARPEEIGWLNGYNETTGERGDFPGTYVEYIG
As to conditions: replicate selections in which the peptide was seen: 7.

Setting [8] is: replicate selections in which the peptide was seen: 6.
Where [9] appears, read: replicate selections in which the peptide was seen: 2.
Where [10] appears, read: replicate selections in which the peptide was seen: 4.
The mark [11] stands for this setting: replicate selections in which the peptide was seen: 5.
Where [12] appears, read: replicate selections in which the peptide was seen: 3.

Sequence of MK08_Pkinase__P45983_1_363 (chain, as listed by the source): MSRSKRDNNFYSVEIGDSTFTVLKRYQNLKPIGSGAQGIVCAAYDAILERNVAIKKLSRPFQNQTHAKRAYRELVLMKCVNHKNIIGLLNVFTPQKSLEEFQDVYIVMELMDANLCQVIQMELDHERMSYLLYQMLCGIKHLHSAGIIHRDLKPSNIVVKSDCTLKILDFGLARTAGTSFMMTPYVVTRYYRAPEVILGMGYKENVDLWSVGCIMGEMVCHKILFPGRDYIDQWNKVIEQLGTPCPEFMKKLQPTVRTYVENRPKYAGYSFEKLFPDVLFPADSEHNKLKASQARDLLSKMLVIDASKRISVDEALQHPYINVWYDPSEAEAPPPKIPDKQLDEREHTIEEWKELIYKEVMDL

Regarding PPPPPPPREPFAPSLG [CTNND2 220-235 wt], the “mean normalised NGS count” value stood at 0.367 in assay [1] (setting [8]), 1.37 in [2] (setting [8]) and 0.94 with Src_SH3__P12931_87_144 (setting [8]). As for QLGMRMQHNLEQQIQA [SPTAN1 2299-2314 wt], the “mean normalised NGS count” value in assay [3] (setting [9]) was 2.57. For DGMGYGDYPKLPDRSQ [NDUFB8 68-83 wt], the “mean normalised NGS count” value in assay [4] (setting [10]) was 0.00432. In the case of PPPPPRGQVTLYEHNN [AAAS 8-23 wt], the results for the “mean normalised NGS count” value (in [1] (setting [8]); in [2] (setting [8]); with Src_SH3__P12931_87_144 (setting [8])) were 0.456, 47.7 and 2.5, respectively. As for LFQITTFAGWDGLLAP [SCN2A 1717-1732 mut P35498.S1723F], the “mean normalised NGS count” value with IRS2_PTB__Q9Y4H2_188_304 was 47.5. With LLQLRLAESQARLDHD [BLOC1S3 108-123 wt], the “mean normalised NGS count” value in [2] (setting [9]) worked out at 0.381; in assay [5], 0.76.

Take YYWNADTDLVSWLSPH [PQBP1 64-79 wt]: the “mean normalised NGS count” value was determined as 18.6 in the assay with GGA3_VHS__Q9NZ52_1_166 and 50.5 in assay [6]. For the molecule FLPPTPLEPSPTLPDL [DYSF 133-148 mut O75923.P134L], the “mean normalised NGS count” value came out at 33.6 in assay [7] (setting [8]), 0.0703 with NCK1_SH3_1_P16333_5_60 (setting [11]) and 0.628 with Src_SH3__P12931_87_144 (setting [8]). In the case of PEPVRASKPAPPPEAL [SPEG 2220-2235 mut Q15772.Q2233E], the “mean normalised NGS count” value in [3] (setting [8]) turned out to be 1.38.

Consider LDTALSKIGEKSLFPK [HMBS 64-79 mut P08397.T78P], for which, in [3] (setting [10]), the “mean normalised NGS count” value was found to be 17.4. With LEGAAPPIPPRLHSED [DISC1 725-740 wt], the “mean normalised NGS count” value came to 10.6 in assay [4] (setting [8]), 0.618 in assay [1] (setting [8]), 33.8 in [2] (setting [8]) and 0.091 with Src_SH3__P12931_87_144 (setting [11]).

With LLQVDTFKGWMDIMYA [SCN10A 1425-1440 mut P35498.A1429D], the “mean normalised NGS count” value with GGA3_VHS__Q9NZ52_1_166 was 8.05. In the case of TTVRPAKPPVVDRSLK [STAMBP 223-238 wt], the “mean normalised NGS count” value in [3] (setting [11]) is 0.0554.

For the molecule LEGAAPPIPPRLHSKD [DISC1 725-740 mut Q9NRI5.E739K], the “mean normalised NGS count” value in assay [4] (setting [8]) is 0.402; in assay [1] (setting [8]), 0.0547; in assay [2] (setting [8]), 4.27.

VKVSEPPLPPGRVTLV [TTN 26217-26232 wt]: the “mean normalised NGS count” value in [1] (setting [9]) is 0.00558.

STAAAPPSYDRVTKPV [SCN1A 1978-1993 mut P35498.I1993V]: in assay [3] (setting [8]), the “mean normalised NGS count” value was found to be 1.17. With LLQVDTFKGWMDIMYA [SCN1A 1425-1440 mut P35498.A1429D], the “mean normalised NGS count” value in the assay with GGA3_VHS__Q9NZ52_1_166 came to 8.05. Regarding TTVRPAKPPVVDRYLK [STAMBP 223-238 mut O95630.S236Y], in assay [3] (setting [8]), the “mean normalised NGS count” value was 5.33. Take QVIEGRQLPEVNIKPV [DYSF 225-240 mut O75923.G234E]: the “mean normalised NGS count” value in [1] (setting [8]) was 0.724; with Src_SH3__P12931_87_144 (setting [8]), 1.27. Consider EPPLPPGRVTLADVTR [TTN 26221-26236 mut Q8WZ42.V26232A], for which the figures for the “mean normalised NGS count” value (in [1] (setting [9]); with Src_SH3__P12931_87_144 (setting [10])) were 0.011 and 0.0584, respectively. Take FPPPTPLEPSPTLPDL [DYSF 133-148 wt]: the “mean normalised NGS count” value in assay [7] (setting [12]) was determined as 0.0171.

PVVDRFLKPGALSNSE [STAMBP 231-246 mut O95630.S236F]: in assay [3] (setting [10]), the “mean normalised NGS count” value came out at 0.0206. Take SNQEDTGYKFRVLPQP [PMS2 553-568 mut P54278.C560Y]: the “mean normalised NGS count” value in assay [1] (setting [9]) was 0.00595; in the assay with Src_SH3__P12931_87_144 (setting [10]), 0.0536.

For LLQVDTFKGWMDIMYA [SCN2A 1425-1440 mut P35498.A1429D], the “mean normalised NGS count” value in the assay with GGA3_VHS__Q9NZ52_1_166 is 8.05. Turning to LLQVDTFKGWMDIMYA [SCN8A 1425-1440 mut P35498.A1429D], in the assay with GGA3_VHS__Q9NZ52_1_166, the “mean normalised NGS count” value came to 8.05.

For the molecule PEPVRASKPAPPPQAL [SPEG 2220-2235 wt], the “mean normalised NGS count” value in assay [3] (setting [11]) came to 0.126; in the assay with PIK3R1_SH3_1_P27986_6_78 it was 0.206. For the molecule LFQITTFAGWDGLLAP [SCN8A 1717-1732 mut P35498.S1723F], the “mean normalised NGS count” value in the assay with IRS2_PTB__Q9Y4H2_188_304 turned out to be 47.5. With LFQITTFAGWDGLLAP [SCN5A 1717-1732 mut P35498.S1723F], the “mean normalised NGS count” value in the assay with IRS2_PTB__Q9Y4H2_188_304 was 47.5. Turning to YPPLPPRWLEVINITK [TTN 15009-15024 mut Q8WZ42.S15012L], the “mean normalised NGS count” value turned out to be 0.505 in assay [4] (setting [8]), 0.119 in assay [1] (setting [8]) and 0.0728 in the assay with Src_SH3__P12931_87_144 (setting [8]). Consider PPPPLPPREPFAPSLG [CTNND2 220-235 mut Q9UQB3.P224L], for which the “mean normalised NGS count” value in assay [3] (setting [11]) was found to be 0.103; in assay [4] (setting [8]), 80.9; in assay [1] (setting [8]), 95.7; in the assay with Src_SH3__P12931_87_144 (setting [8]) it was 70.5. Regarding PAKPPVVDRSLKPGAL [STAMBP 227-242 wt], the “mean normalised NGS count” value in assay [3] (setting [11]) worked out at 0.122. MAPPSEERPLIPQRSA [JAK3 1-16 mut P52333.T8R]: in assay [1] (setting [10]), the “mean normalised NGS count” value turned out to be 0.0204. Turning to LFQITTFAGWDGLLAP [SCN10A 1717-1732 mut P35498.S1723F], the “mean normalised NGS count” value with IRS2_PTB__Q9Y4H2_188_304 was found to be 47.5. As for AVPLFLPPTPLEPSPT [DYSF 129-144 mut O75923.P134L], the results for the “mean normalised NGS count” value (in assay [7] (setting [8]); with NCK1_SH3_1_P16333_5_60 (setting [12])) were 12.3 and 0.0115, respectively.

With PAKPPVVDRFLKPGAL [STAMBP 227-242 mut O95630.S236F], the “mean normalised NGS count” value in assay [3] (setting [8]) worked out at 3.15.

Regarding YGDYPKLPDRSQHERD [NDUFB8 72-87 wt], the “mean normalised NGS count” value in assay [4] (setting [8]) came to 0.305; in [1] (setting [12]), 0.00784. KPPPLPRSNTVASFSS [TSC2 1262-1277 wt]: the “mean normalised NGS count” value in assay [1] (setting [12]) was 0.00544; with Src_SH3__P12931_87_144 (setting [8]), 3.18.

QPIDYSLKYPTDIPSS [APC 1175-1190 mut P25054.A1184P]: the “mean normalised NGS count” value in [3] (setting [10]) came out at 0.0642. Consider PPPPPRGKVTLYEHNN [AAAS 8-23 mut Q9NRG9.Q15K], for which the “mean normalised NGS count” value amounted to 0.185 in [1] (setting [11]), 0.463 in assay [2] (setting [8]) and 1.46 in the assay with Src_SH3__P12931_87_144 (setting [8]). LFQITTFAGWDGLLAP [SCN3A 1717-1732 mut P35498.S1723F]: in the assay with IRS2_PTB__Q9Y4H2_188_304, the “mean normalised NGS count” value was found to be 47.5. Consider APPSYDRVTKPVVEKH [SCN1A 1982-1997 mut P35498.I1993V], for which the “mean normalised NGS count” value in [3] (setting [10]) is 0.0199. Take LFQITTFAGWDGLLAP [SCN9A 1717-1732 mut P35498.S1723F]: the “mean normalised NGS count” value in the assay with IRS2_PTB__Q9Y4H2_188_304 was 47.5.

In the case of LLQVDTFKGWMDIMYA [SCN5A 1425-1440 mut P35498.A1429D], the “mean normalised NGS count” value in the assay with GGA3_VHS__Q9NZ52_1_166 came to 8.05. With LLQVDTFKGWMDIMYA [SCN3A 1425-1440 mut P35498.A1429D], the “mean normalised NGS count” value with GGA3_VHS__Q9NZ52_1_166 was determined as 8.05. Take LFQITTFAGWDGLLAP [SCN1A 1717-1732 mut P35498.S1723F]: in the assay with IRS2_PTB__Q9Y4H2_188_304, the “mean normalised NGS count” value turned out to be 47.5. As for LLQVDTFKGWMDIMYA [SCN4A 1425-1440 mut P35498.A1429D], the “mean normalised NGS count” value in the assay with GGA3_VHS__Q9NZ52_1_166 turned out to be 8.05.

Regarding STAAAPPSYDRVTKPI [SCN1A 1978-1993 wt], the “mean normalised NGS count” value worked out at 68.1 in assay [3] (setting [8]) and 1.05 in assay [7] (setting [12]).

Consider AVPLFPPPTPLEPSPT [DYSF 129-144 wt], for which, in [7] (setting [8]), the “mean normalised NGS count” value was 5.77. As for PVVDRSLKPGALSNSE [STAMBP 231-246 wt], in [3] (setting [8]), the “mean normalised NGS count” value was 0.0214.

Values taken from the supplement of paper PMC11369174, “Proteome-scale characterisation of motif-based interactome rewiring by disease mutations” (Molecular Systems Biology, 2024).
